According to PubChem BioAssay AID485294 (National Center for Advancing Translational Sciences (NCATS), 2010):
Hit rate of the full screen: of about 370,000 compounds, about 150 (0.041%) were called active. The shares of active, inactive and inconclusive entries below differ from those in the screen. The call rests on the fitted dose curve; in most records, active means well fitted inhibition curve with a large enough effect; inconclusive means small, poorly fitted or top-dose-only effect; inactive means flat fitted curve, though single readings scatter. No potency is given beside an inconclusive call; the fits are too rough.

These compounds were tested against Beta-lactamase (Escherichia coli (strain K12)) (UniProt P00811) (assay: qHTS Inhibitors of AmpC Beta-Lactamase (assay with detergent)). Settings: AmpC hydrolysis of nitrocefin, absorbance 480 nm, 0.01% Triton; activity change, negative = inhibition: at 114 µM (top of the series).
UniProt P00811, sequence (P00811 whole entry, looked up): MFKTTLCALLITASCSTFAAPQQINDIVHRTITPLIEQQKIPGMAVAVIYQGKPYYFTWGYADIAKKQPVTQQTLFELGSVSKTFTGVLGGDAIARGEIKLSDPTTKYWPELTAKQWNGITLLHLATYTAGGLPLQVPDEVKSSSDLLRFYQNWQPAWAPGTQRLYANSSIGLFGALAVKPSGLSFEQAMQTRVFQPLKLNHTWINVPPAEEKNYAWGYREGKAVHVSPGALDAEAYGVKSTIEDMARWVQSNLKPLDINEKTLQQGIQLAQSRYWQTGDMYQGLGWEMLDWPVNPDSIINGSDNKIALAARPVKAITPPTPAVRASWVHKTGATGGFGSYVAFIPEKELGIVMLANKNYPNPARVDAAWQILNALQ
Method in brief: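 20 mM phosphate pH 7.0 + 0.01% (detergent screen) or 0.0001% Triton X-100; 5.3 nM AmpC reagent; cpd preinc 15 min RT; nitrocefin (800 uM stock) to start; A480 q20 s × 4 min; Activity was normalised to no-enzyme and no-compound control wells.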
Further: nearly all actives have a fitted effect of over 25% in size.
Potency means the concentration at half of the fitted maximal effect; tags describe the fitted curve by direction and shape.
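Wherever activity change, negative = inhibition is given: 0% = no-compound wells and -100% = no-enzyme wells.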

Row | SMILES | Potency | activity change, negative = inhibition
1 | CC(Nc1nc(-c2cccc(Br)c2)cs1)c1nc2cc(Cl)c(N3CCCCC3)cc2n1CCOCCO (configuration not stated) | inconclusive [inhibitor, full curve, poor fit] | 
2 | Cn1cccc1C(=O)C(=O)Nc1ccccc1 | inconclusive [inhibitor, full curve, poor fit] | 
3 | O=C(COc1ccc(F)c(Cl)c1)N1CCCCCCC1 | inconclusive [inhibitor, full curve, poor fit] | 
4 | C/C(=N\NC(N)=S)C1(C)CCCCC1 | inconclusive [inhibitor, partial curve] | 
5 | COc1ccc(CN2CCN(C(=O)c3ccc(S(=O)(=O)NCc4ccco4)cc3)CC2)cc1 |  | inactive: 0%
6 | CC(C)c1ccc(NC(=S)NN2CCN(C)CC2)cc1 |  | inactive: 0.935%
7 | CC#CC(=O)N1CCCC(Cc2cccc(OC)c2)(C(=O)OCC)C1 (configuration not stated) | inconclusive [inhibitor, full curve, poor fit] | 
8 | COc1ccc(NC(=O)CC2C(=O)N(c3ccc(OC)cc3)C(=S)N2NC(=O)c2cccc(F)c2)cc1 (configuration not stated) | inconclusive [inhibitor, full curve] | 
9 | COc1ccc(C2CC(=O)Nc3c2c(=O)[nH]c2nc4ccccc4n32)cc1OC (configuration not stated) |  | inactive: -1.87%
10 | Nc1c(C(=O)NCCN2CCOCC2)c2nc3ccccc3nc2n1CCc1ccccc1 | inconclusive [inhibitor, single point] | 
11 | COc1cccc(-c2ccc(NC(=O)C3CCCN(Cc4cnc(N(C)C)s4)C3)cc2)c1 (configuration not stated) | inconclusive [inhibitor, partial curve] | 
12 | Cc1cccc(C)c1NC(=O)C1CCCN1S(=O)(=O)c1ccc(-c2ccc(=O)[nH]n2)s1 (configuration not stated) | inconclusive [inhibitor, full curve, poor fit] | 
13 | O=C(COc1ccc2c(c1)oc(=O)c1ccccc12)N[C@@H](Cc1c[nH]c2ccccc12)C(=O)O | inconclusive [inhibitor, full curve, poor fit] | 
14 | CCCCN(C)Cc1c(C)[nH]c2ccc(OCC)cc2c1=O | inconclusive [inhibitor, full curve, poor fit] | 
15 | COC(=O)c1cc2sc(C)cc2n1Cc1ccc(Br)cc1F |  | inactive: 22.5%
16 | CC1=C(C)SC(=C(C#N)c2nnc(N3CCOCC3)n2-c2ccccc2)S1 | inconclusive [inhibitor, partial curve, poor fit] | 
17 | COc1cccc(-n2c(=S)sc3c(=O)n(-c4ccccc4OC)c(SCC4OCCO4)nc32)c1 | inconclusive [inhibitor, partial curve, poor fit] | 
18 | Cc1ccc2oc(=O)c(/C=C(\O)C(C)(C)C)nc2c1 |  | inactive: -10.7%
19 | O=C(O)CCCCCCCCCCCc1ccccc1 | inconclusive [inhibitor, single point] | 
20 | Cc1cccc(OCc2nc(-c3cccnc3)no2)c1 |  | inactive: -7.89%
21 | CNC(=O)COC(=O)/C=C/c1nc2ccccc2s1 | inconclusive [inhibitor, partial curve] | 

Row | SMILES | Potency | activity change, negative = inhibition
22 | COc1ccc(CN2CCN(c3nc4ccccc4s3)CC2)cc1 |  | inactive: -4.4%
23 | O=C(O)c1cccc(Cn2c(Cl)c(/C=N/NC(=O)c3ccccc3)sc2=O)c1 | inconclusive [inhibitor, partial curve, poor fit] | 
24 | CCC(C)(C)NS(=O)(=O)c1cc(CN2C(=O)c3cccnc3C2=O)ccc1OC | inconclusive [inhibitor, full curve, poor fit] | 
25 | CCOC(=O)c1ccc(NC(=O)CC2SCCNC2=O)cc1 (configuration not stated) | inconclusive [inhibitor, single point] | 
26 | CCCCOc1ccc(C(=O)N(Cc2ccc(C(C)C)cc2)C2CCS(=O)(=O)C2)cc1 (configuration not stated) | inconclusive [inhibitor, single point] | 
27 | O=C(CN1C(=O)C2C3C=CC(C4CC34)C2C1=O)Nc1cnc2ccccc2c1 (configuration not stated) | inconclusive [inhibitor, single point] | 
28 | CCOC(=O)c1c(N)sc(N)c1C(=O)OCC |  | inactive: -15.2%
29 | COC(=O)c1ccc(/C=C/c2ccc3cccc(OC(C)=O)c3n2)cc1 | inconclusive [inhibitor, single point] | 
30 | Cc1cc(NC(=O)COc2ccc3oc4ccccc4c3c2)no1 | inconclusive [inhibitor, partial curve, poor fit] | 
31 | COc1ccc(N2C(=O)C3CCCN3C2c2ccc(F)cc2)cc1Cl (configuration not stated) | inconclusive [inhibitor, full curve, poor fit] | 
32 | CCOC(=O)N1CCN(c2c(NCc3cccs3)c(=O)c2=O)CC1 |  | inactive: -1.6%
33 | CC1=[N+]([O-])C(C)(C)CC(C)(C)c2ccccc21 | inconclusive [inhibitor, full curve, poor fit] | 
34 | CCCCCC(=O)Nc1ccc(S(=O)(=O)Nc2nccc(C)n2)cc1 | inconclusive [inhibitor, single point] | 
35 | CCCCC(=O)Nc1nnc(SCC(=O)Nc2ccc(OC)cc2)s1 |  | inactive: -6.96%
36 | CCOc1ccc(NC(=S)N(CCc2c(C)[nH]c3ccc(C)cc23)Cc2ccco2)cc1 | inconclusive [inhibitor, partial curve, poor fit] | 
37 | CN(C)S(=O)(=O)c1cccc(NC(=O)CCc2nc3sc4c(c3c(=O)[nH]2)CCCC4)c1 | inconclusive [inhibitor, partial curve] | 
38 | CSc1ccc(CNC(=O)c2ccccc2NC(=O)c2nsc3ccccc23)cc1 |  | inactive: 21.5%
39 | COc1ccc(NC(=O)c2c(-c3ccccc3)c(-c3ccccc3)nn(C)c2=O)c(OC)c1 |  | inactive: 15.8%
40 | CCN=C1SC(CC(=O)NC(C)C)C(=O)N1CC (configuration not stated) | inconclusive [inhibitor, full curve, poor fit] | 
41 | CCn1c(C(C#N)/C(=N\S(=O)(=O)c2cccs2)c2ccccc2)nc2ccccc21 (configuration not stated) | inconclusive [inhibitor, full curve, poor fit] | 
42 | CC1CCN(C(=O)c2cnn(-c3cccc(Cl)c3)c2C2CCN(C(=O)OC(C)(C)C)CC2)CC1 |  | inactive: 23.6%
